Reference: PMC12136788
This is one part of the list.

B1: chr18:33333173:33333394:-|CDS|ENSG00000166960|control|control|control (ssRNA)
RNA: GGGAGUUCUACAGUCCGACGAUCACAUUUUGAAAAACAAAAGACAGAGUUAGAAGAAGCAAAUGCAAAGAUUCAAGCAGACAUAGACUACAUGAAUGAACAUGGCCCUCUACUGGACUCUAAGCAGAAUCAGGAACUUCAAGACAACAGAGGAUUGAGCAUCA
B2: chr10:43184366:43184487:+|3pUTR|ENSG00000169826|unk|FALSE|bound_elsewhere (ssRNA)
RNA: GGGAGUUCUACAGUCCGACGAUCUAGUUUAUUUGAGCCAGCUCUAUCAGGGUCUUCCCAUGGUGGUUCAGAAUAGAUGAGCAUAGCAUGGUUUUGUUUGUUUUUGCUUUCAAUUUUCUAAUUUGGCAUGGAUCCAUAUGUAUUCAACAGAGGAUUGAGCAUCA
B3: chrX:65741246:65741425:+|3pUTR|ENSG00000147065|msi1|FALSE|unique (ssRNA)
RNA: GGGAGUUCUACAGUCCGACGAUCUAUUAUGUACUCUACUGAUAUCUAAAUAUUGAUUUCUGCCUUCCUUGCUAAUGCACCAUUAGAAGAUAUUAGUCUUGGGGCAGGAUGAUUUUGGCCUCAUUACUUUACCACCCCCACACCCAACAGAGGAUUGAGCAUCA
B4: chr6:144094883:144095236:-|three_prime_utr|ENSG00000169976|control|control|control (ssRNA)
RNA: GGGAGUUCUACAGUCCGACGAUCUCCGCGUACAGAAGUGCUUGCCCGGGGAGUCCCGCCUGACCUGCCUUCAUGUGGACCCUUAGAACAGCACUGGGAGACCAGCAGGACUCCUGAGAACUGUGCUGGUGGAGAGGUCCUAGACAACAGAGGAUUGAGCAUCA
B5: chr16:74623592:74623693:-|3pUTR|ENSG00000168411|msi1|FALSE|unique (ssRNA)
RNA: GGGAGUUCUACAGUCCGACGAUCCCAUUAUUGUAUGUUGGAAAUUCUUAUUUUCUUUAUUUUCUGUGUGACUUUCUGGACCUUAGAGAGUGUCCUCUCAUCAUCUAGGAUGUGAGUGGGCAUCAAGCAUUUUCUGGGGAAUAUCAACAGAGGAUUGAGCAUCA
B6: chr9:6012816:6012917:-|CDS|ENSG00000137040|unk|FALSE|unique (ssRNA)
RNA: GGGAGUUCUACAGUCCGACGAUCGGGAUUGUGCAUAUUUGAUGACAUCAUAGAGCACUGCAGUCCAACUUCAUUUAAAUAUGUAGAAUAUUUUCGGUGGCCAAUGCUACUAAAUAUGCGAGAUAACAACCCUGAAGUCAGGCACAACAGAGGAUUGAGCAUCA
B7: chr1:205715917:205716022:-|3pUTR|ENSG00000069275|msi1_unk|total|mutant (ssRNA)
RNA: GGGAGUUCUACAGUCCGACGAUCGAGACAGGCUCUGAAUAACCUUUGUUUUCUCCACUUUUUAUUGAUGAUUUAAAACACUCCCGUCUUCCCCUCAAAUCAUGCAUGCAAACCGGAGGACAGUGGUGGUGACUCAACUGGAUACAACAGAGGAUUGAGCAUCA
B8: chr16:366968:367674:-|three_prime_utr|ENSG00000086504|control|control|control (ssRNA)
RNA: GGGAGUUCUACAGUCCGACGAUCGACUCACUACAACCUCCACCUCCAGAGUUCAAGUGAUUGUCCUGUCUCAGCCUCCUGAGUAGCUGGGAUUACAGGCACCCCGCUAUCAUGUAUGGCUAAUUGUAUUUUAGUAGAGAAGGGCAACAGAGGAUUGAGCAUCA
B9: chr16:46956602:46956663:-|3pUTR|ENSG00000069345|msi1_unk|FALSE|overlapping (ssRNA)
RNA: GGGAGUUCUACAGUCCGACGAUCGUUUGUACAAUUUGUCCUGAAGCUUUGUGUUUGGCUGCACCUGCAUAAGCUGCUACAAAUAGAAUAAAGAAUUUCAUAGCCUGUAUCUAUCAUUUAGAUGCAUGGAAAAAAAUGGGCUUUCAACAGAGGAUUGAGCAUCA
B10: chr15:71825291:71825392:-|3pUTR|ENSG00000066933|unk|total|mutant (ssRNA)
RNA: GGGAGUUCUACAGUCCGACGAUCUGAAGCUAUUUUUGUUAAUAUUCUGGUUACUGAAGUUUAUUGUAAAUAUGUAUGUACCGCCGGCAUAUUUCUUUUUAACCUUGUGCUUCCCUCCUUCCCAUGGAAUUUCUUCCCACAGAUCAACAGAGGAUUGAGCAUCA
B11: chr1:25360731:25360844:+|3pUTR|ENSG00000183726|unk|total|mutant (ssRNA)
RNA: GGGAGUUCUACAGUCCGACGAUCUUUUUUACUGCUCACUCCCAACCUUUUGUAAUGCCAUUUUCUAAACUUAUUUCUGAGUGCCGUCUCAGCUUAAAGUUGUGUAAUACUAAAAUCACGAGAACACCUAAACAACAACCAAAACAACAGAGGAUUGAGCAUCA
B12: chr11:130144177:130144243:+|3pUTR|ENSG00000084234|msi1_unk|FALSE|overlapping (ssRNA)
RNA: GGGAGUUCUACAGUCCGACGAUCAUGAGGGUGUCCGCUGCUGCUUUCCUUCGGAAUCCAGUGCUUCCACAGAGAUUAGCCUGUAGCUUAUAUUUGACAUUCUUCACUGUCUGUUGUUUACCUACCGUAGCUUUUUACCGUUCACAACAGAGGAUUGAGCAUCA
B13: chr16:22286016:22286117:+|3pUTR|ENSG00000103319|msi1|total|mutant (ssRNA)
RNA: GGGAGUUCUACAGUCCGACGAUCCUGAGCCCAGCCAAGACUUCAGUGUUGACUGCUUUGGAGGCACAAACCCAUGCAAGCGUCCGUUCCAAAGUUCAGUGUGUACCCUUAAAUGAACAAUGAAGCAGGUAAAAUUACCCUUGACAACAGAGGAUUGAGCAUCA
B14: chr19:6534681:6534787:+|CDS|ENSG00000125657|unk|total|mutant (ssRNA)
RNA: GGGAGUUCUACAGUCCGACGAUCAGAGGACACGAAGGAGCUGGUGGUGGCCAAGGCUGGAGUCUACUAUGUCUUCUUUCAACCCGAGCUGCGGCGCGUGGUGGCCGGCGAGGGCUCAGGCUCCGUUUCACUUGCGCUGCACCUCAACAGAGGAUUGAGCAUCA
B15: chr1:110947961:110948399:-|CDS|ENSG00000121931|control|control|control (ssRNA)
RNA: GGGAGUUCUACAGUCCGACGAUCAAGUCAUUUCUUCAAUAAAAAUUAUACCGAAGAUAUUUUCCCAGUGACACCACCGGAGUUAGAAGAAACCAUUCGAGAUGAAAAAAUAAGAAGACUUAAGCAGGUGCUGAGAGAGAAAGACAACAGAGGAUUGAGCAUCA
B16: chr4:76160418:76160736:-|3pUTR|ENSG00000138760|msi1|total|mutant (ssRNA)
RNA: GGGAGUUCUACAGUCCGACGAUCAGUUCCUUCCUCAGUUUCAGUUCUUUCCAGUGUUUUGCCGCUCACUGUCACUCACUGAACCGAGAAACGUGUGCCCUAUACUUCCUGUGACAAUCAUUUUGCUGACAGAAUGAUGGAUGUCAACAGAGGAUUGAGCAUCA
B17: chr14:22920524:22921056:-|three_prime_utr|ENSG00000100462|control|control|control (ssRNA)
RNA: GGGAGUUCUACAGUCCGACGAUCCAGCACCAGUCUGUUCUGCUAUUCAUAACCCCACAGGCCGCUCAUAUACCAUUGGCCUCUAGCCCUGCGUGCCAAGUGUCCAGAGCCUUGGAAGCAGCUUCAGGUUCUGCUCCUGUAGUACAACAGAGGAUUGAGCAUCA
B18: chr9:35750248:35750349:+|CDS|ENSG00000107185|msi1|total|mutant (ssRNA)
RNA: GGGAGUUCUACAGUCCGACGAUCGGCCCUGGCCUGGGCCAGUGCCCAAAUCCACUGCCAGUUCCAUGCCAGUGAGAGUCGAGCCGCACUGCCUCCUCCUGACUCCCGUCAGCCAGAUGUCCAGCCCGACAGCCAGACUGUCUUCAACAGAGGAUUGAGCAUCA
B19: chr14:100883672:100883793:-|CDS|ENSG00000254656|unk|total|mutant (ssRNA)
RNA: GGGAGUUCUACAGUCCGACGAUCUCUAUUCCGGGUCCCUCAGCCGGAUUCCCCCGACAGUCUGAUUGUGCUCAUCCUGCAAACCGAAGAGAAGCUGGCAGAGAGAAGAGCUAUGCUCAGGCUGCCCCCCGAGGCCCGCCCCCGCAACAGAGGAUUGAGCAUCA
B20: chr2:9584341:9584442:-|3pUTR|ENSG00000134308|msi1_unk|total|mutant (ssRNA)
RNA: GGGAGUUCUACAGUCCGACGAUCUUUCCAUGCAGAUUUGUGCACAUGUGAGAGGGUGUCCAGUUUGUCCCGUGAUUGUUAUUCCGAGAGUUGGACCACUAUUGUGUGUUGCUAAUCAUUGACUGCCGUCCCAAAAAAGCCUUGCAACAGAGGAUUGAGCAUCA
B21: chr11:78173774:78174554:-|CDS|ENSG00000188997|control|control|control (ssRNA)
RNA: GGGAGUUCUACAGUCCGACGAUCCGGGGGGAAGCUCUAUACAACCUCACUGGCGACCCUGACCAGCUUCCCUGACUCCAUGCUAGGCGCCAUGUUCAGCGGGAAGAUGCCCACCAAGAGGGACAGCCAGGGCAACUGCUUCAUCAACAGAGGAUUGAGCAUCA
B22: chr10:33178043:33178144:-|3pUTR|ENSG00000099250|msi1|total|mutant (ssRNA)
RNA: GGGAGUUCUACAGUCCGACGAUCAAAUUGGAUUGAGAAUGCCUUUUGUUUCCAGGAAAAUAUUGAUCACCAUGAAAGAAGAACCGUUUUUUGUCCCCAGAGACAUUCAUUCCGUUGAUAUAAUCCUACCAGAAGGAAAGCACUCAACAGAGGAUUGAGCAUCA

Each binder was assayed against MSI1 full-length (mouse, UniProt Q61474 1-362) (assay: nsRBNS (natural sequence RNA bind-n-seq); RBNS binding buffer (assumed for nsRBNS): 25 mM Tris pH 7.5, 150 mM KCl, 3 mM MgCl2, 0.01% Triton X-100, 500 ug/ml BSA, 20 U/ml SUPERase-In, 4 C; UNK is unkempt and MSI1 is Musashi-1; names of the RNAs are library labels; protein concentration not given here; high values mean tight binding).
Chain of UniProt Q61474 (Q61474 whole entry): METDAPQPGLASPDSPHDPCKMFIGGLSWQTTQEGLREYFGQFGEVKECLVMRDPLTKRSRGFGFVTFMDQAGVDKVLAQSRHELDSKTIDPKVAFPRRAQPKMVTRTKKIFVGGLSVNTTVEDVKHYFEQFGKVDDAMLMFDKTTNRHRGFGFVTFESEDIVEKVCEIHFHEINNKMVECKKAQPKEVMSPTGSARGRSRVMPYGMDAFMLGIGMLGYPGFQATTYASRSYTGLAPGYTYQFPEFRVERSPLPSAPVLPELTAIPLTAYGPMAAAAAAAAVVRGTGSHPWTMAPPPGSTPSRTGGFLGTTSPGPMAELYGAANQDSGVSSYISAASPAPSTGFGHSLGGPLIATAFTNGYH

| Binder | binding signal [enrichment R] |
| --- | --- |
| B1 | 0.735 |
| B2 | 0.795 |
| B3 | 1.39 |
| B4 | 0.427 |
| B5 | 0.568 |
| B6 | 0.513 |
| B7 | 0.488 |
| B8 | 1.24 |
| B9 | 0.633 |
| B10 | 0.592 |
| B11 | 0.673 |
| B12 | 1.41 |
| B13 | 0.375 |
| B14 | 0.742 |
| B15 | 0.75 |
| B16 | 0.317 |
| B17 | 0.537 |
| B18 | 0.443 |
| B19 | 0.436 |
| B20 | 0.322 |
| B21 | 0.459 |
| B22 | 0.284 |
